The list shows a part of the results. The data describe in vitro nicking of single-stranded DNA by Rep domains (1 h at 37 °C, 3 µM enzyme); the outer parts of the 90-letter strands are left off. The score is log2 (uncut reads / reads without enzyme); the lower, the more was cut; hits are not called. Counts are relative to all reads; values above 0 arise when much of the pool is cut.
Key:
Test in all cases: uncleaved DNA left, log2 of reads against the no-enzyme library (log2 ratio); higher = less cleavage (more negative = more Rep cleavage of the k-mer); sequences stand for … in CTCGTCCG…ACCGGAGA
[1] = tested on: T1, Rep nickase domain of Muscovy duck circovirus
T1 sequence (residues 1-111, tag not shown): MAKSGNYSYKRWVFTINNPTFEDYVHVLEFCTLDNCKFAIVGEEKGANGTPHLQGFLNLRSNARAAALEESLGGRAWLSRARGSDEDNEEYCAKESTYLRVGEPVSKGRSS
Description: (§1)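 A pool of 90-nt single-stranded DNAs with seven random bases just before the constant AC of the nick site (name = the seven bases) was cut by 3 µM recombinant His6-SUMO-tagged Rep nickase domain (300 nM DNA, 50 mM HEPES pH 8.0, 50 mM NaCl, 1 mM MnCl2, 1 h, 37 °C, three replicates). Uncut DNA was amplified and sequenced.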

[2] = tested on: T2, Rep nickase domain of banana bunchy top virus
T2 sequence (residues 1-94, tag not shown): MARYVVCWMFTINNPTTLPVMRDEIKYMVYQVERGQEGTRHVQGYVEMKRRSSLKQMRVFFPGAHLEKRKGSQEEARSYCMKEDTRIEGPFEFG
Description: as §1

[3] = tested on: T3, Rep nickase domain of cabbage leaf curl virus
T3 sequence (residues 1-116, tag not shown): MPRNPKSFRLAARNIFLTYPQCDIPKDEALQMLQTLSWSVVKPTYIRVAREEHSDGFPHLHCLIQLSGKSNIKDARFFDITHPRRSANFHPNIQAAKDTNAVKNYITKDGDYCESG
Description: as §1

[4] = tested on: T4, Rep nickase domain of chickpea chlorotic dwarf virus
T4 sequence (residues 1-124, tag not shown): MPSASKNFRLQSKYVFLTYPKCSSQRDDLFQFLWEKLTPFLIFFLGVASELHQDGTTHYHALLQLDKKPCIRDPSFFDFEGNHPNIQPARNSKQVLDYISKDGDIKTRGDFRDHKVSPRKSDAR
Description: as §1

[5] = tested on: T5, Rep nickase domain of faba bean necrotic yellows virus
T5 sequence (residues 1-98, tag not shown): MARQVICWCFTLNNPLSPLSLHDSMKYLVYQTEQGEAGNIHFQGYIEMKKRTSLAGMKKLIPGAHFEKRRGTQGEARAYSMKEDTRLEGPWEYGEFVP
Description: as §1

[6] = tested on: T6, Rep nickase domain of maize striate mosaic virus
T6 sequence (residues 1-117, tag not shown): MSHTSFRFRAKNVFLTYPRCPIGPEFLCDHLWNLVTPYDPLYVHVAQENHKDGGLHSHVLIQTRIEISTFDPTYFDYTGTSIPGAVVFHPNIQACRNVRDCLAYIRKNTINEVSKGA
Description: as §1

[7] = tested on: T7, Rep nickase domain of porcine circovirus 2
T7 sequence (residues 2-116, tag not shown): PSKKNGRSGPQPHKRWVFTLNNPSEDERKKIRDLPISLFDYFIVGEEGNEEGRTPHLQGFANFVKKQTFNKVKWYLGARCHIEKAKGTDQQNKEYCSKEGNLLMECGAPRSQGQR
Description: as §1

[8] = tested on: T8, Rep nickase domain of tomato golden mosaic virus
T8 sequence (residues 1-124, tag not shown): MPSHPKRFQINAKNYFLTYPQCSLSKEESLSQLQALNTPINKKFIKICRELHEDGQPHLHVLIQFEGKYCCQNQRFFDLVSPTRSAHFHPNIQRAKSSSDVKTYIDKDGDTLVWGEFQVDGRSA
Description: as §1

[9] = tested on: T9, Rep nickase domain of tomato yellow leaf curl virus
T9 sequence (residues 1-136, tag not shown): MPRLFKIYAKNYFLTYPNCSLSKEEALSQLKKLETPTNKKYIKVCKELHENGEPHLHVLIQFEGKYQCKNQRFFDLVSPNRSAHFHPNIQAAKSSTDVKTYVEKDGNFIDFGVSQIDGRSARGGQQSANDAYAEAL
Description: as §1

[10] = tested on: T10, Rep nickase domain of wheat dwarf virus
T10 sequence (residues 1-137, tag not shown): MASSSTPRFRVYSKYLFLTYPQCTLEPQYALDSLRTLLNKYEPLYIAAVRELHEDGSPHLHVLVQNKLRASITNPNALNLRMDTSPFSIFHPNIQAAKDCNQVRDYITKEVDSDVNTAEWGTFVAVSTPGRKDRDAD
Description: as §1

Sequence	uncleaved DNA left (log2) [1]	uncleaved DNA left (log2) [2]	uncleaved DNA left (log2) [3]	uncleaved DNA left (log2) [4]	uncleaved DNA left (log2) [5]	uncleaved DNA left (log2) [6]	uncleaved DNA left (log2) [7]	uncleaved DNA left (log2) [8]	uncleaved DNA left (log2) [9]	uncleaved DNA left (log2) [10]
ATCGTGA	0.00153	-0.00822	-0.255	-0.289	-0.0014	-0.951	0.0656	0.0743	-0.0174	-0.0105
ATAGACT	-0.0124	0.0866	0.0167	-0.789	0.00489	0.729	0.101	0.122	-0.0563	-0.00267
CCAACGA	0.0444	0.101	-0.298	-0.929	0.0824	-0.939	0.167	0.108	0.0772	-0.112
CTTCAGT	0.0479	0.0137	-0.206	-0.755	-0.0718	-0.969	-0.116	0.0238	0.0537	0.0659
TACTCCC	-0.437	-0.202	-0.289	-1.35	-0.0332	-0.217	-2.67	-0.287	-0.263	-0.201
CTCCGTA	0.0528	0.0517	0.000593	-0.155	0.081	-0.188	0.0813	-0.0368	0.0923	0.0217
GTTCGCA	-0.021	0.0338	0.28	0.716	-0.0669	1.47	0.127	0.0386	-0.0377	0.107

Source: the supplement of paper PMC7826260
